The campaign covered roughly 43,000 compounds. About 830 (1.9%) were called active. The shares of active, inactive and inconclusive entries below differ from those in the screen. Rule for the calls: active = clear falling dose curves in both reporters; inconclusive = both reporters move, but less clearly or upward; inactive = either reporter flat; the % is the NLuc reporter signal. Potencies of inconclusive entries are left out as doubtful fits.
Experiment: Cell-based coincidence reporter assay to measure PMP22 gene transcription in S16 Pmp22-F2sN cells - Primary screen
Conditions: S16 Pmp22-F2sN Schwann cells (luciferase reporters placed in the Pmp22 gene), FLuc/NLuc coincidence luminescence, 24 h; measured here: NLuc reporter readout, at 57.5 µM (top of the series); activity change, negative = inhibition: at the top concentration
Outline: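 Luminescent read-out of sequential FLuc and NLuc signals from a reporter embedded in the Pmp22 3' UTR of S16 Schwann cells, taken after 24 h compound exposure at 37C; compounds reducing both signals score as inhibitors of expression.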
% is set by controls: 0 for no effect and ±100 for the full control effect; potency is the fitted concentration of half-maximal effect; tags give direction and shape of the fitted curve.

| Structure (SMILES) | Potency | activity change, negative = inhibition |
| --- | --- | --- |
| CCOC(=O)c1cc(-c2ccc(OC)c(S(=O)(=O)Nc3ccc(OC)cc3OC)c2)on1 | inconclusive [phenotype inactive, single point] |  |
| O=C(NCc1ccc(Cl)cc1)C1CCCN(C(=O)c2cnn(-c3ccc(F)cc3)c2-n2cccc2)C1 (stereo not drawn) | inconclusive [phenotype inactive, partial curve] |  |
| Cc1cccc(-c2nn3c(=O)cc(CN4CCN(S(=O)(=O)c5ccc(Cl)cc5)CC4)nc3s2)c1 | inconclusive [phenotype inactive, single point] |  |
| Cc1nc(-c2ccc(Cl)cc2)sc1CCNC(=O)c1ccc(C(F)(F)F)cc1 | inconclusive [phenotype inactive, partial curve, poor fit] |  |
| Cc1ccccc1Cn1c(=O)n(CCc2ccccc2)c(=O)c2c(C)c(C)sc21 | inconclusive [phenotype inactive, partial curve, poor fit] |  |
| CC(CNC(=O)Cn1ccc2cc(S(=O)(=O)N3CCCCCC3)ccc21)c1ccccc1 (stereo not drawn) | inconclusive [phenotype inactive, single point] |  |
| O=S(=O)(Nc1ccc2nc(-c3cccc(Cl)c3)oc2c1)c1ccccc1 |  | inactive: -19.7% |
| CCc1ccc(-n2c(=O)c3sc4ccccc4c3n(Cc3cccc(F)c3)c2=O)cc1 | inconclusive [phenotype inactive, partial curve, poor fit] |  |
| CCCCCOc1ccc(/C=C/C(=O)Nc2sc(C(C)=O)c(C)c2C(=O)OCC)cc1OC | active: 7.51 µM |  |
| CCOC(=O)N1CCc2c(sc(NCc3ccc(OC)c(OC)c3OC)c2C(=O)Nc2ccc(OC)cc2OC)C1 |  | inactive: -29.4% |
| Cc1cccc(NS(=O)(=O)c2ccc(-n3cccn3)cc2)c1C | inconclusive [phenotype inactive, single point] |  |
| CCOC(=O)c1c(-c2ccccc2)csc1NC(=O)c1nc(S(=O)(=O)CC)ncc1Cl | active: 4.5 µM |  |
| COc1ccccc1-c1cc(C(F)(F)F)nc(S(=O)(=O)CCCC(=O)Nc2cc(OC)c(OC)c(OC)c2)n1 |  | inactive: -0.258% |
| Cc1ccc(CNS(=O)(=O)c2cc(C(=O)Nc3cccc(C(F)(F)F)c3)ccc2F)cc1 |  | inactive: -7.45% |
| CCS(=O)(=O)c1ncc(Cl)c(C(=O)N2CCN(c3cccc(Cl)c3)CC2)n1 | inconclusive [phenotype inactive, full curve, poor fit] |  |
| Cc1ccc(Cl)cc1N1CCN(C(=O)c2cc(S(=O)(=O)N3CCCCCC3)cn2C)CC1 | inconclusive [phenotype inactive, single point] |  |
| O=S(=O)(Nc1cccc(-c2ccc(N3CCCC3)nn2)c1)c1ccc(F)cc1F |  | inactive: -3.73% |
| CCOc1ccc(-c2cn3c(n2)sc2cc(C(=O)NCCCN(CC)CC)ccc23)cc1 | active: 4.47 µM |  |
| CCN(CC)CCn1c2c(c(SCC(=O)Nc3cccc(C(F)(F)F)c3)nc1=O)CCC2 | active: 16 µM |  |

| Structure (SMILES) | Potency | activity change, negative = inhibition |
| --- | --- | --- |
| CCOc1ccc(-c2nn(-c3ccccc3)cc2C2NC(=O)NC(C)=C2C(=O)OC(C)C)cc1C (stereo not drawn) | inconclusive [phenotype inactive, single point] |  |
| Cc1ccc2c(c1)C(=O)C(=O)N2Cc1ccc(OC(C)C)cc1 | active: 2.3 µM |  |
| COc1ccc(OC)c(S(=O)(=O)N2Cc3ccccc3CC2C(=O)Nc2ccc(Cl)cc2)c1 (stereo not drawn) | inconclusive [phenotype inactive, single point] |  |
| COc1cccc(NC(=O)CSc2nnc(-c3cccs3)o2)c1 |  | inactive: 11.9% |
| Cc1ccc(Cl)cc1N1CCN(CCCNC(=O)c2nnc(Cc3cccc(Cl)c3)o2)CC1 | inconclusive [phenotype inactive, partial curve] |  |
| CCCOc1ccc(C2c3c(-c4ccccc4O)n[nH]c3C(=O)N2CCCOCC)cc1OCC (stereo not drawn) | inconclusive [phenotype inactive, single point] |  |
| Cc1ccc2c(CC(=O)N(Cc3ccc(Cl)cc3)Cc3ccco3)coc2c1 | inconclusive [phenotype inactive, single point] |  |
| Cc1ccc(C)c(Cn2c(=O)n(CCCCCC(=O)NCc3ccc4c(c3)OCO4)c(=O)c3sccc32)c1 | inconclusive [phenotype inactive, single point] |  |
| CC(C)c1nn2c(=O)cc(COC(=O)CNC(=O)c3ccccc3Cl)nc2s1 | inconclusive [phenotype inactive, single point] |  |
| Cc1cccc(OCCSc2nc3ccc(NC(=O)c4cccs4)cc3s2)c1 | inconclusive [phenotype inactive, single point] |  |
| Cc1ccc(OCC(=O)Nc2cc(-c3nc4ccccc4[nH]3)ccc2C)c(C)c1 |  | inactive: -28.4% |
| Cc1ccc(NC(=O)c2cc(S(=O)(=O)N3CCCc4ccccc43)ccc2F)cc1F | inconclusive [phenotype inactive, single point] |  |
| Cc1cccc(Cn2c(SCc3ccc(C(=O)N4CCC(C)CC4)cc3)nc3ccncc32)c1 | inconclusive [phenotype inactive, single point] |  |
| O=C(Nc1cccc2cccnc12)c1cccc2ccccc12 | inconclusive [phenotype inactive, single point] |  |
| CSc1ncc(C(=O)NCc2ccc(Cl)cc2)c(C(F)(F)F)n1 | inconclusive [phenotype inactive, single point] |  |
| COc1cc(C(=O)Nc2nc3c(s2)Cc2c(Br)ccc(OC)c2-3)cc(OC)c1OC | inconclusive [phenotype inactive, single point] |  |
| Cc1cc(C)c2c(n1)nn1c(C)c(CCC(=O)NCc3ccccc3Cl)c(C)nc21 |  | inactive: -14.4% |
| Cc1ccccc1NC(=O)Cn1c(=O)n(CCCCCC(=O)NCc2ccccc2Cl)c(=O)c2sccc21 | inconclusive [phenotype inactive, single point] |  |
| COc1cc(NC(=O)c2cc(Cl)ccc2Cl)ccc1NC(=O)c1cc2ccccc2o1 | inconclusive [phenotype inactive, single point] |  |
